# Screen size: about 310,000 compounds; about 11,000 (3.5%) were called active. Inconclusive results, whose numbers are uncertain, are shown with a selection of clear calls. Calls follow the shape of the dose curve; as a rule, active = well fitted inhibition curve with a large enough effect; inconclusive = small, poorly fitted or top-dose-only effect, or effect the other way; inactive = flat fitted curve, though single readings scatter. No potency is given beside an inconclusive call; the fits are too rough.
# Test: VP16 counterscreen qHTS for inhibitors of ROR gamma transcriptional activity;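 also: Gal4-VP16 expression switched on by copper sulfate through the metallothionein promoter; nearly all actives have a fitted effect of over 50% in size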
# Conditions: Drosophila S2 Gal4-VP16 UAS-luciferase, luminescence, 20 h; activity, negative = inhibition: at 53.6 µM (top of the series)
# % is scaled to controls: 0 for no effect and ±100 for the full control effect; potency is read from the fitted curve at half-maximal effect; tags tell the direction and shape of the fitted curve.
SMILES,Potency,"activity, negative = inhibition"
Cc1cc(C)c(C)c(OCCn2ccnc2)c1,"inconclusive [inhibitor, single point]",–
COc1cccc(/C=N\NC(=O)c2ccc(Cn3cc(Br)c([N+](=O)[O-])n3)o2)c1O,active: 0.282 µM,–
Cc1ccc(C(=O)COC(=O)c2ccc3c(c2)C(=O)N(c2cccc4ncccc24)C3=O)cc1C,active: 15.8 µM,–
Cc1ccc(/C=C/C(=O)Nc2nc3ccccc3[nH]2)cc1,"inconclusive [inhibitor, single point]",–
COc1cccc2[nH]c3ccccc3c(=O)c12,"inconclusive [inhibitor, single point]",–
Cc1ccccc1NC(=O)Nc1nnc(CC(=O)NCc2ccccc2)s1,"inconclusive [activator, single point]",–
COCCNC(=O)CSc1ccc(Cl)cc1,–,inactive: 17.2%
Cc1ccc(NC(=S)NC2CCN(Cc3ccccc3)CC2)cc1C,"inconclusive [inhibitor, single point]",–
Cc1ccc(NC(=S)NC2CCSc3ccccc32)cc1 (stereo unspecified),active: 5.62 µM,–
CCCCC(=O)Nc1ccc(C(=O)Nc2cc(C(F)(F)F)ccc2Cl)cc1,"inconclusive [inhibitor, single point]",–
O=C(Nc1cccc(-c2csc(-c3ccccc3)n2)c1)c1cccs1,"inconclusive [inhibitor, partial curve]",–
COc1ccc(CNC(=O)CCCCCNC(=O)N2CCn3c2nc2ccccc23)cc1,–,inactive: -9.42%
COC(=O)c1cc(N=Nc2sc(N)nc2C)cc(C(=O)OC)c1,–,inactive: -10.4%
COc1ccccc1NC(=S)NCCc1ccccc1,"inconclusive [inhibitor, single point]",–
O=C(CN1CCC(C(=O)c2ccc(F)cc2)CC1)Nc1ccc(F)cc1,"inconclusive [inhibitor, single point]",–
CCn1ccnc1CNC(=O)CC1C(=O)NCCN1Cc1ccc(OC)cc1OC (stereo unspecified),–,inactive: -10.4%
CCOc1cc(N2CCOCC2)c(OCC)cc1NC(=O)COc1cccc2cccnc12,"inconclusive [inhibitor, single point]",–
CC(=O)c1ccc(Oc2cc(C)nc(-n3nc(C)cc3C)n2)cc1,active: 6.31 µM,–
COc1ccc(Nc2nc3ccccc3c(=O)s2)c(OC)c1,"inconclusive [inhibitor, single point]",–
CCOc1cc(N2CCOCC2)c(OCC)cc1NC(=O)c1ccc(C)cc1,"inconclusive [inhibitor, full curve, poor fit]",–
Brc1ccc(Nc2ncnc3[nH]ncc23)cc1,–,inactive: -0.609%
CC1(C)CC(CC(=O)Nc2ccccc2[N+](=O)[O-])C(=O)O1 (stereo unspecified),–,inactive: -5.09%
COc1ccc(-c2n[nH]c(=S)n2CC(C)C)cc1,"inconclusive [inhibitor, single point]",–
COc1ccc(C(=O)N/N=C/c2cccc3cccnc23)cc1,active: 2.24 µM,–

SMILES,Potency,"activity, negative = inhibition"
Cc1nn(-c2ccccc2)c(Cl)c1CN(C(=O)CCl)c1ccc(Cl)cc1,"inconclusive [inhibitor, single point]",–
COc1ccc(C2/C=C\CN(CC(C)C)C(Cc3ccccc3)C(=O)N2Cc2ccc(F)cc2)cc1 (stereo unspecified),"inconclusive [inhibitor, single point]",–
NS(=O)(=O)c1ccc(-c2ccc(/C=C3\C(=O)Nc4cc(Cl)ccc43)o2)cc1,"inconclusive [inhibitor, single point]",–
CCOc1ccccc1N1C(=O)CC(Nc2ccc(N3CCOCC3)cc2)C1=O (stereo unspecified),"inconclusive [inhibitor, single point]",–
Cc1cccc(N=C2NN=C(c3ccccc3F)CS2)c1C,"inconclusive [activator, single point]",–
O=C(CSc1cccs1)Nc1cccc2ccccc12,"inconclusive [activator, partial curve]",–
COC(=O)c1cc(=O)nc2sc3cc(OC)ccc3n12,–,inactive: -2.05%
CC(C)(C)OC(=O)NCCCC[C@H](NC(=O)c1nc[nH]c1C(=O)NC(c1ccccc1)c1ccccc1)C(=O)OC(C)(C)C,"inconclusive [inhibitor, single point]",–
CCCOc1ccc(C(=O)c2nc3c(n2O)CCCC3)cc1,"inconclusive [inhibitor, single point]",–
CC(NC(=O)c1ccco1)c1nc(-c2ccc(C(C)(C)C)cc2)no1 (stereo unspecified),"inconclusive [inhibitor, single point]",–
O=C(Nc1ccccc1)C1CCCCC1,–,inactive: -1.04%
O=C(NC1CCCCC1)C(c1cccs1)N(Cc1cccs1)C(=O)c1ccco1 (stereo unspecified),"inconclusive [inhibitor, single point]",–
COc1ccc(OC)c(NC(=O)c2cc(-c3cc(Cl)ccc3O)n[nH]2)c1,"inconclusive [inhibitor, single point]",–
CC(C)(C)c1ccc(-c2n[nH]c(=S)n2-c2ccccc2)cc1,active: 2.82 µM,–
COc1cccc(NC(=O)N2CCC(n3nnc4ccccc43)CC2)c1,"inconclusive [inhibitor, single point]",–
Cc1cc2c3c(cccc3n1)C(=O)c1ccccc1-2,"inconclusive [inhibitor, single point]",–
CC(/C=C1\SC(=S)N(CCC(=O)Nc2ccc(O)cc2)C1=O)=C\c1ccccc1,active: 14.1 µM,–
O=C(CSc1nnc(-c2ccc3c(c2)OCCO3)o1)N1CCCC1,"inconclusive [inhibitor, single point]",–
O=C(O)c1ccc(OCc2ccc(C(=O)O)o2)cc1,–,inactive: 1.12%
Cc1ccc(-n2c(C)n[nH]c2=S)cc1,"inconclusive [inhibitor, single point]",–
C(=N\C(/N=C/c1ccco1)c1ccco1)/c1ccco1,–,inactive: 17.4%
Cc1ccc(NC(=S)N(C)C)cc1C,"inconclusive [inhibitor, single point]",–
CCOc1cccc(=O)c2c(C)n(-c3ccc(C(=O)O)cc3)c(C)c12,"inconclusive [inhibitor, single point]",–
CCOc1cc(/C=N/n2c(COc3ccccc3)n[nH]c2=S)ccc1O,"inconclusive [inhibitor, single point]",–

SMILES,Potency,"activity, negative = inhibition"
C/C(=N/NS(=O)(=O)c1cccc([N+](=O)[O-])c1)c1ccncc1,"inconclusive [inhibitor, single point]",–
Cc1onc(-c2ccccc2)c1C(=O)N/N=C/c1cc(Br)c(Br)o1,active: 10 µM,–
O=C(NCc1ccccc1)c1ccc(CN(c2ccccn2)S(=O)(=O)c2ccccc2)cc1,–,inactive: -6.35%
CCOc1ccc(N(CC(=O)NN=C2CCN(C)CC2)S(C)(=O)=O)cc1,"inconclusive [inhibitor, single point]",–
COc1cccc(/C=C2/SC(=S)N(CC(=O)NNC(=O)c3ccccc3OC)C2=O)c1,"inconclusive [inhibitor, single point]",–
Cc1cc(N2CCN(c3ccc([N+](=O)[O-])c4cccnc34)CC2)c2ccccc2n1,active: 7.08 µM,–
S=C(NCc1ccco1)Nc1ccc(Oc2ccccc2)cc1,"inconclusive [inhibitor, single point]",–
C/C(=N\NC(=O)C(c1ccccc1)c1ccccc1)c1ccccn1,active: 1.58 µM,–
CC1CCCCC1NC(=O)c1ccncc1 (stereo unspecified),–,inactive: -0.441%
COc1ccc2c(c1)C1=NN(/C(C)=C\C(C)=O)C(c3ccccc3)C1CC2 (stereo unspecified),"inconclusive [activator, partial curve]",–
COc1ccc(/C=N/NC(=O)c2cccc([N+](=O)[O-])c2)c2ccccc12,"inconclusive [inhibitor, single point]",–
CCCCc1ccc(/C=C2/C(=O)ON=C2c2ccccc2)s1,"inconclusive [inhibitor, single point]",–
CCc1nc2nc(C)cc(Nc3cccc(C(F)(F)F)c3)n2n1,"inconclusive [inhibitor, single point]",–
FC(F)(F)c1cccc(NC(=S)Nc2ccc(Cl)c(Cl)c2)c1,"inconclusive [inhibitor, single point]",–
CCOC(=O)c1sc(NC(=O)CCN2CCN(C)CC2)c(C(=O)OCC)c1C,"inconclusive [inhibitor, partial curve, poor fit]",–
COc1ccc(C(=O)Nn2c(SCC(=O)c3ccc(Cl)cc3)nc3ccccc3c2=O)cc1,"inconclusive [inhibitor, single point]",–
COCCOc1nc2c(c(=O)n(C)c(=O)n2C)n1CCc1ccccc1,"inconclusive [inhibitor, single point]",–
Cc1ccc(C2=NN3C(C2)c2ccccc2OC32C(=O)Nc3ccccc32)cc1 (stereo unspecified),"inconclusive [inhibitor, single point]",–
Cc1ccc(C)c(NC(=O)CSc2nnc3n2CCCCC3)c1,–,inactive: 2.32%
O=C(Nn1c(COc2ccccc2)nc2ccccc2c1=O)C(Cl)(Cl)Cl,"inconclusive [inhibitor, single point]",–
CCOC(=O)NC(NC(=S)Nc1ccc(OC)cc1)C(Cl)(Cl)Cl (stereo unspecified),"inconclusive [activator, single point]",–
O=C(/C=C/c1ccc(OCCCF)cc1)Nc1ccnc(-c2ccncc2)n1,"inconclusive [inhibitor, single point]",–
COc1ccc2cc(C(=O)C3CCCN(Cc4ccccn4)C3)ccc2c1 (stereo unspecified),"inconclusive [inhibitor, single point]",–
